Consider 25 compounds from PubChem BioAssay AID493014 (National Center for Advancing Translational Sciences (NCATS), 2011).

The whole screen tested about 340,000 compounds, of which about 170 (0.05%) were called active. Roughly 26% stayed inconclusive and do not appear here. Calls follow the shape of the dose curve; as a rule, active = well fitted inhibition curve with a large enough effect in the signal ratio, with a control signal flat (not every such curve was filed as active); inconclusive = small, poorly fitted or top-dose-only effect, or effect the other way, or a change in a side signal; inactive = flat fitted curve, though single readings scatter; the % refers to the signal ratio. The list shows a part of the results, in another mix than the full data.
Potency is read from the fitted curve at half-maximal effect.

The experiment is described as follows: qHTS Assay to Find Inhibitors of Chronic Active B-Cell Receptor Signaling.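 As to activity change, negative = inhibition: plate controls were basal doxycycline-induced cells for no effect and cells given 10 µM MG132 for full effect.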 Particulars: ABC-DLBCL IkBa-CBG/CBR reporter, luminescence ratio (green luciferase fused to IkBa over red control in TMD8 lymphoma cells), 4 h; series mostly up to 46.1 µM; activity change, negative = inhibition: at the top concentration. Summed up:
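TMD8 ABC-DLBCL cells carrying doxycycline-inducible green luciferase fused to IkappaBalpha plus unfused red luciferase were exposed to compounds (up to 46 uM) for 4 hrs at 37C. Activity came from the overlap-corrected green/red luminescence ratio.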
On the technique in general: In qHTS, concentration-response curves come from the screen itself.
As to `OCC1OC(n2cnc3c(NC4CCCCC4)ncnc32)C(O)C1O` (stereo not given), the Potency was active: 12.6 µM.
For the compound `CC(=O)OCC(=O)C1(O)CCC2C3CCC4=CC(=O)C=CC4(C)C3C(O)CC21C` (stereo not given), the “activity change, negative = inhibition” value was inactive: -25.6%.
Still for that read-out and setting: as for `Cc1ccccc1CN1C(=O)c2ccccc2Sc2ccc(C(=O)O)cc21`, the figure is inactive: -1.11%; as for `C=CC[C@H](CC(=O)OC(C)(C)C)C(=O)OC[C@H]1CCCN1C(=O)[C@H](CC=C)CC(=O)NCCO`, inactive: 1.21%.
As for `CC1=C/C(=C(\c2ccc(O)c(C)c2)c2ccccc2S(=O)(=O)O)C=CC1=O`, the “activity change, negative = inhibition” value is inactive: 0.161%.
As to `CC/C(=N\NC(=S)NC(C)C)c1ccc(OC(F)F)cc1`, the Potency was active: 22.4 µM.
On to `CCO[C@@H]1OC(C(=O)NCc2nc3ccccc3[nH]2)=C[C@H](c2ccc(C(F)(F)F)cc2)[C@H]1CCCO`, for which the “activity change, negative = inhibition” value is inactive: -16.8%.
On to `Cc1cc(NC(=O)CCN2C(=O)/C(=C/c3ccccc3Cl)SC2=S)no1`, for which the “activity change, negative = inhibition” value is inactive: 3.92%.
Turning to `O=C(C1=C[C@H](c2csc3ccccc23)C[C@H](OCc2ccc(CO)cc2)O1)N1CCN(Cc2ccc3c(c2)OCO3)CC1`, the “activity change, negative = inhibition” value is inactive: -14.3%.
As for `Cn1c(=O)c2c(ncn2CC(=O)N/N=C/C=C\c2ccccc2[N+](=O)[O-])n(C)c1=O`, the “activity change, negative = inhibition” value was inactive: -6.74%.
As to `O=C1/C(=C\c2ccsc2)N2CCC1CC2`, the “activity change, negative = inhibition” value was inactive: 0.387%.
The same measure, in the same setting: the figure for `CCOC(=O)c1c(CN2CCOCC2)n(C)c2cc(Br)c(O)c(CN(C)C)c12` is inactive: -1.88%.
With `O=C(O)Cn1c(O)c(C=Nc2ccccc2)sc1=S`, the “activity change, negative = inhibition” value was inactive: -0.967%.
Consider `O=C1OC[C@@H]2CCCN2C(=O)[C@H](CC(=O)N(CCO)Cc2ccccc2)C/C=C\CC[C@@H]1Cc1ccc(F)cc1`, for which the “activity change, negative = inhibition” value is inactive: 0.374%.
As to `COc1ccccc1N1C(=O)N(CC(=O)C(C)(C)C)c2ccccc2S1(=O)=O`, the “activity change, negative = inhibition” value was inactive: -2.58%.
For the compound `O=C(Nc1ccccc1Cl)N1CCSc2ccccc21`, the “activity change, negative = inhibition” value is inactive: -0.834%.
In the case of `O=C1OC[C@@H]2CCCN2C(=O)[C@@H](CC(=O)N(CCO)Cc2ccccc2)C/C=C\C[C@H]1Cc1ccc(F)cc1`, the “activity change, negative = inhibition” value is inactive: -0.149%.
In the case of `O=C(O)CSc1cccc2cccnc12`, the “activity change, negative = inhibition” value is inactive: 4.1%.
`COc1ccc(C(=O)N/C(=C/c2cccc3ccccc23)C(=O)NCCc2c[nH]c3ccccc23)cc1OC`: the “activity change, negative = inhibition” value is inactive: -8.35%.
For `COC(=O)/C=C1/N/C(=N\c2nc(C)cc(C)n2)N(c2ccc(Cl)cc2)C1=O`, the “activity change, negative = inhibition” value was inactive: -0.334%.
Still for that read-out and setting: as for `CC1CC2C3CCC4=CC(=O)C=CC4(C)C3(F)C(O)CC2(C)C1(O)C(=O)CO` (stereo not given), the figure is inactive: -7.99%; as for `COc1cccc(-c2ccc3ncnc(NCc4cc(C)cs4)c3c2)c1`, inactive: -10.1%.
As to `COc1ccc(NS(=O)(=O)c2ccc3ccccc3c2)c2ncccc12`, the Potency is active: 3.16 µM.
Same read-out and setting: as for `C=CCc1ccc(OCCOc2ccc(/C=N/n3cnnc3)cc2OCC)c(OC)c1`, the figure is active: 23.1 µM; as for `O=C(NCc1ccc2c(c1)OCO2)c1cc([N+](=O)[O-])ccc1N1CCCCC1`, active: 23.1 µM.
